{
  "sequences": {"note": "Sequences of proteins named here, by UniProt entry; tags and fusion partners are left off. A change or cut given only in a name is not applied to a line headed by its entry. Residues count along the entry.", "UniProt Q5DW34": "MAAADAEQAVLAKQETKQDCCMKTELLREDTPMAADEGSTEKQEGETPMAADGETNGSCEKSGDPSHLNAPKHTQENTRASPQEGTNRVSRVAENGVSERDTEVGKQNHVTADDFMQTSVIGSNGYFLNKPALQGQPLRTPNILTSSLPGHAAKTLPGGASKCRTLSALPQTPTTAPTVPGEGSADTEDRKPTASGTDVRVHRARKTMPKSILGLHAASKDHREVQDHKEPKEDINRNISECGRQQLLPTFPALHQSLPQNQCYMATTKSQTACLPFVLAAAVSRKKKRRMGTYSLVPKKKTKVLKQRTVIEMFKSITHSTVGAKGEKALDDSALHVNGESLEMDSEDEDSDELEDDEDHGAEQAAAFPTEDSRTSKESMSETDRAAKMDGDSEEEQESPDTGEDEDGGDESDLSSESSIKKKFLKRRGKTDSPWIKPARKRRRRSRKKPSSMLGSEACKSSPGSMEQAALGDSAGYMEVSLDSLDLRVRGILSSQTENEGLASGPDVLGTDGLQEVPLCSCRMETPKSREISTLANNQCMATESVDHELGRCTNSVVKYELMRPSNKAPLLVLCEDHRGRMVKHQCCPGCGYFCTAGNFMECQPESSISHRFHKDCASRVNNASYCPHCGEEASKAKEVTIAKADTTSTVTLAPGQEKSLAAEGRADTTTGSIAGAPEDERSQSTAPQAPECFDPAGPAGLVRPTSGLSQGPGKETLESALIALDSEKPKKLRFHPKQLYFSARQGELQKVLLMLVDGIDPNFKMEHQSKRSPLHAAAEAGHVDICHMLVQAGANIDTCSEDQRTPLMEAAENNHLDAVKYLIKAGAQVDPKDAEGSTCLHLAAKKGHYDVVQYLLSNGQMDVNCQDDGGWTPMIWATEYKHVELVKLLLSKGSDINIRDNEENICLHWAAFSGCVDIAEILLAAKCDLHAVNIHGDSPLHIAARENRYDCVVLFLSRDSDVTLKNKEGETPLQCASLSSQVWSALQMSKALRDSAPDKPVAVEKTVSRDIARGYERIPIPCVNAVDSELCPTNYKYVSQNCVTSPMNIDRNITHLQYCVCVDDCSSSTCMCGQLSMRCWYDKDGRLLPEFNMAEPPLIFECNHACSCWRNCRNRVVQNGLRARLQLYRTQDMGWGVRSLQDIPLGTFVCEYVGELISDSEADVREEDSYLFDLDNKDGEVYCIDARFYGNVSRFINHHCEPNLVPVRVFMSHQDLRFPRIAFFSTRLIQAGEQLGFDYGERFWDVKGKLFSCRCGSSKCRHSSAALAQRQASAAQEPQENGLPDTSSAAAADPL", "UniProt Q86YI8": "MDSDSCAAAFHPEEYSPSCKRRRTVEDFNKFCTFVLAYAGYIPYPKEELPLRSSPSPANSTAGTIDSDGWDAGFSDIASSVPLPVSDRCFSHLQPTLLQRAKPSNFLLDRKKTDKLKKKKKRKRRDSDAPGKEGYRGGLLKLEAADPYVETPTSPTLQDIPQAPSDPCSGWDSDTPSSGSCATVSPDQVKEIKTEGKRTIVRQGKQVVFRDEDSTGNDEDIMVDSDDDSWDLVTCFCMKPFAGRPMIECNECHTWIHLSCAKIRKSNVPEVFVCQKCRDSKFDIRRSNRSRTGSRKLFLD", "GST-SPOC1 1-100": "residues 1-100 of Q86YI8", "UniProt Q8K2W6": "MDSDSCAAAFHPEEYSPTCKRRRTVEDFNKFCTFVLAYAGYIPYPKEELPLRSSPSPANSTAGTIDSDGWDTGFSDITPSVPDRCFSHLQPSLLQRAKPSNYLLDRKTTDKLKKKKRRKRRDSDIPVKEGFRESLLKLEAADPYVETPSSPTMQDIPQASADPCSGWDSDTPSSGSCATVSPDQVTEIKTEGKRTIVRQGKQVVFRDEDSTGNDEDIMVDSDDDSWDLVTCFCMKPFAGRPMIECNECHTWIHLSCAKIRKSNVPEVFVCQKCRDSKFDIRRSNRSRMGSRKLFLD", "UniProt Q96KQ7": "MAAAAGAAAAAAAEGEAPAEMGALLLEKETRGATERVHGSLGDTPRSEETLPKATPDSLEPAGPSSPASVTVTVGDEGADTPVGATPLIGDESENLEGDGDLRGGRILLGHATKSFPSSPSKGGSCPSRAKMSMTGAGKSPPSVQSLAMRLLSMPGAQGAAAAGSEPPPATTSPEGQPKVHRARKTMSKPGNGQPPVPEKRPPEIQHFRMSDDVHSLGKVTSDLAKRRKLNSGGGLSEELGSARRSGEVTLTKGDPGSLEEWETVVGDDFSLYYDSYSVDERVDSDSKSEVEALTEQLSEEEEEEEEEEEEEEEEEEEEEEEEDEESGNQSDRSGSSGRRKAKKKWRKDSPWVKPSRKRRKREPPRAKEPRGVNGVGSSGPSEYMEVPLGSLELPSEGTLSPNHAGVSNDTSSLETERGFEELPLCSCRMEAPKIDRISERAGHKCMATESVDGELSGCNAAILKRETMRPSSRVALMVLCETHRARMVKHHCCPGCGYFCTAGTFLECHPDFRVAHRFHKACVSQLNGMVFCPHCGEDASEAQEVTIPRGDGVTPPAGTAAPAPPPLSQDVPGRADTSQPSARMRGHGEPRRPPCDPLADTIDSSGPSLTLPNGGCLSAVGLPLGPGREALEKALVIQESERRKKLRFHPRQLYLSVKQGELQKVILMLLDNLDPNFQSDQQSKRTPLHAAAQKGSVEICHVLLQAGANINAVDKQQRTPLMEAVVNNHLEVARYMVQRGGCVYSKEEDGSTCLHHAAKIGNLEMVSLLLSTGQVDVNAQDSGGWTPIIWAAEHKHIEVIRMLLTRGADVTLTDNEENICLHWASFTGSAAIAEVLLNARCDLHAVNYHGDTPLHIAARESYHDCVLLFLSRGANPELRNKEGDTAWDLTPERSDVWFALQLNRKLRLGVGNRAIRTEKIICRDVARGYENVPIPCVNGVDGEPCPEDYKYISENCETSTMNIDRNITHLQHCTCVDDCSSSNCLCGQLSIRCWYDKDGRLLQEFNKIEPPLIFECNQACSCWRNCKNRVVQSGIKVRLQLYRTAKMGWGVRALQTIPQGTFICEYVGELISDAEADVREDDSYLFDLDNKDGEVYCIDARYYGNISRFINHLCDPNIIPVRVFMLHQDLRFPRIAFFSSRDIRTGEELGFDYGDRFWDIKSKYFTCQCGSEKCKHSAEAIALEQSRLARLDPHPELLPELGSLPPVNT"},
  "source": "paper PMC3526275",
  "key": {"[1]": {"molecular_target": "GLP (endogenous, C2C12) (mouse (endogenous in C2C12)) (UniProt Q5DW34)", "assay": "co-IP; immunoprecipitation of endogenous GLP or SUV39H1 from C2C12 cell extracts, control antibody alongside; immunoblot for GLP, SUV39H1, SETDB1 and SPOC1"}, "[2]": {"molecular_target": "T1, SUV39H1 (endogenous, C2C12) (mouse (endogenous in C2C12)) (UniProt O54864)", "T1 sequence": "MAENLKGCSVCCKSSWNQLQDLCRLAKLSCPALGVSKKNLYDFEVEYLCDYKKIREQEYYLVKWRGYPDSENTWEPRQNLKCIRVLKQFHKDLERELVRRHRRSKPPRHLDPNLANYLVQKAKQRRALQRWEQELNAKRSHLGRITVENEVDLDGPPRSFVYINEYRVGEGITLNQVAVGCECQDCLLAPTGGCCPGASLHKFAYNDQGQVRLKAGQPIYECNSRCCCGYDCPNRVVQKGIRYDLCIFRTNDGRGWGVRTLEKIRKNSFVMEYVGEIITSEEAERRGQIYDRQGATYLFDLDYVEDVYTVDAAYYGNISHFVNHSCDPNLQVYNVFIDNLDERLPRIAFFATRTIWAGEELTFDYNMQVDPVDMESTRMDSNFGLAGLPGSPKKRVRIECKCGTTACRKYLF", "assay": "co-IP; immunoprecipitation of endogenous GLP or SUV39H1 from C2C12 cell extracts, control antibody alongside; immunoblot for GLP, SUV39H1, SETDB1 and SPOC1"}, "[3]": {"molecular_target": "ProtA-SPOC1 (amino acids 1–300) (human) (UniProt Q86YI8)", "assay": "LUMIER (luciferase co-precipitation); protein A and renilla luciferase fusion proteins coexpressed in HEK293 cells; protein A fusions captured on IgG-coated magnetic beads; copurified luciferase activity as Z-score, Z-score ≥ 0.5 indicates an interaction"}, "[4]": {"molecular_target": "T2, ProtA-KAP-1 (amino acids 1–400) (human) (UniProt Q13263)", "T2 sequence": "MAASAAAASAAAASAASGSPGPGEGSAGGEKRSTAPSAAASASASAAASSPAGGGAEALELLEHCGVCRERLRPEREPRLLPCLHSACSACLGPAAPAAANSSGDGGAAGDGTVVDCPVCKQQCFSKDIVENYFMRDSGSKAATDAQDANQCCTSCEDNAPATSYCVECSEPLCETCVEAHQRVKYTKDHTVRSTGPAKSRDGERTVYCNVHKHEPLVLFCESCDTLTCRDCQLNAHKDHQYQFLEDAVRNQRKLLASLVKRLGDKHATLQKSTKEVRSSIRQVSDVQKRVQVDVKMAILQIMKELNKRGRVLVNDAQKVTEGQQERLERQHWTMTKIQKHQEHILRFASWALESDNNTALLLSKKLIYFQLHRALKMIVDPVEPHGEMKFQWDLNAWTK", "assay": "LUMIER (luciferase co-precipitation); protein A and renilla luciferase fusion proteins coexpressed in HEK293 cells; protein A fusions captured on IgG-coated magnetic beads; copurified luciferase activity as Z-score, Z-score ≥ 0.5 indicates an interaction"}, "[5]": {"molecular_target": "SPOC1 (endogenous, HeLa) (human (endogenous in HeLa)) (UniProt Q86YI8)", "assay": "co-IP; immunoprecipitation of endogenous SPOC1 from HeLa nuclear extracts with anti-SPOC1 or control antibody; immunoblot; extracts pretreated with DNase with or without RNase or Etbr"}, "GST-SPOC1 1-100 (human)": {"molecular_target": "GST-SPOC1 1-100 (human) (UniProt Q86YI8)", "assay": "pull-down; recombinant GST-fusion proteins on glutathione beads incubated with U2OS chromatin extracts (benzonase-treated, 150 mM NaCl, 25 mM HEPES, 0.1% NP-40) for 1–2 h at 4°C; washed three times with PBS; immunoblot for KAP-1; only the target purified"}, "[6]": {"molecular_target": "GST-SPOC1 full-length (human) (UniProt Q86YI8)", "assay": "pull-down; recombinant GST-fusion proteins on glutathione beads incubated with U2OS chromatin extracts (benzonase-treated, 150 mM NaCl, 25 mM HEPES, 0.1% NP-40) for 1–2 h at 4°C; washed three times with PBS; immunoblot for KAP-1; only the target purified"}},
  "note": "Results are given in words; binding and its absence hold for the method and conditions named. For some of these results: In cells and extracts the contact can be indirect. Some binding calls cover weakened binding; strength is not graded here.",
  "data": [
    {"substance": "SPOC1 (endogenous, C2C12) (from UniProt Q8K2W6 1-296)", "values": [
      {"measurement": "binding", "setting": "[1]", "value": "binds"},
      {"measurement": "binding", "setting": "[2]", "value": "binds"}
    ]},
    {"substance": "Luc-KAP-1 (amino acids 1–835) (from UniProt Q13263 1-835)", "values": [
      {"measurement": "binding", "setting": "[3]", "value": "binds"}
    ]},
    {"substance": "Luc-SPOC1 (amino acids 150–300) (from UniProt Q86YI8 150-300) (domain or fragment)", "values": [
      {"measurement": "binding", "setting": "[4]", "value": "binds"}
    ]},
    {"substance": "G9A (endogenous, HeLa) (from UniProt Q96KQ7 1-1210) (enzyme)", "values": [
      {"measurement": "binding", "setting": "[5]", "value": "binds"}
    ]},
    {"substance": "KAP-1 (endogenous, U2OS) (from UniProt Q13263 1-835)", "values": [
      {"measurement": "binding", "setting": "GST-SPOC1 1-100 (human)", "value": "no binding"},
      {"measurement": "binding", "setting": "[6]", "value": "binds"}
    ]}
  ]
}
